Test results reported in PubChem BioAssay AID588456 (National Center for Advancing Translational Sciences (NCATS), 2011).
Screen size: about 390,000 compounds; about 55 (0.01%) were called active. Inconclusive means that the source gave no clear call. Such entries were picked first, then a sample of the others. Calls follow the shape of the dose curve; as a rule, active = well fitted inhibition curve with a large enough effect; inconclusive = small, poorly fitted or top-dose-only effect; inactive = no such curve, though single readings can be large or run the other way. Where the call is inconclusive, the potency comes from a doubtful curve fit.

Biological target: Thioredoxin reductase 1, cytoplasmic (Rattus norvegicus) (UniProt O89049)
Assay: qHTS Assay for Substrates of Mammalian Selenoprotein Thioredoxin Reductase 1 (TrxR1): qHTS; also: nearly all actives have a fitted effect of over 50% in size
Conditions: purified TrxR1 substrate turnover, NADPH consumption readout; series mostly up to 114 µM
Outline: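 Rat TrxR1, dispensed at 90 nM, was prereduced with 400 uM NADPH (final) for 5 min at ~22 deg C, then incubated with compound 15 min before 400 uM selenite. A first-read NADPH fluorescence drop versus no-compound background flagged substrates.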
Potency is read from the fitted curve at half-maximal effect; tags tell the direction and shape of the fitted curve.

Chain of UniProt O89049 (O89049 whole entry, looked up): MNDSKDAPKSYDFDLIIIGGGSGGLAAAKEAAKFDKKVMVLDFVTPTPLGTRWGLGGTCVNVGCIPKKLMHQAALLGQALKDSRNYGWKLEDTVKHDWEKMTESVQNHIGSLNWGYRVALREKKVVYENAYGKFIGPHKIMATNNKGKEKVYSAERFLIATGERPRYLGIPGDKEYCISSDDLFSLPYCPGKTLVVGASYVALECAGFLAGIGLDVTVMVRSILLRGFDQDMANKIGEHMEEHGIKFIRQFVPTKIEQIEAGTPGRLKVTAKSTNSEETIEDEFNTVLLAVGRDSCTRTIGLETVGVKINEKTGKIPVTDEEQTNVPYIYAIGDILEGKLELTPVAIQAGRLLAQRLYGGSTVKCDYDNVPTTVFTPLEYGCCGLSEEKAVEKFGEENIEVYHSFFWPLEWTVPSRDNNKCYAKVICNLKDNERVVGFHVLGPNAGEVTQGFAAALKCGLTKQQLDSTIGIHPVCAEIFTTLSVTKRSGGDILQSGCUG

Question: How did the Potency turn out when `COc1cccc(CNC(=O)c2ccccc2NC(=O)C2=C(C)OCCS2)c1` was run?
Answer: inconclusive: 1.41 µM [inhibitor, partial curve, poor fit]

Question: For `O=C(Nc1ccc(F)cc1)N(Cc1ccco1)Cc1cc2cc3c(cc2[nH]c1=O)OCO3`, which Potency is on record?
Answer: inactive

Question: How did the Potency turn out when `CC(NC(=O)Cn1nc(-c2ccccc2)c2ccccc2c1=O)c1ccccc1` (stereo not given) was run?
Answer: inactive

Question: For `O=C(N/N=C/c1cc([N+](=O)[O-])cc([N+](=O)[O-])c1O)/C(=C\c1cccs1)NC(=O)c1ccccc1`, which Potency is on record?
Answer: inconclusive: 50.1 µM [inhibitor, partial curve, poor fit]

Question: `CCCn1c(CCC(=O)O)ccc1-c1ccccc1` was tested. Which Potency did it give?
Answer: inactive

Question: For `Cc1cccc(-n2cc(-c3ccccc3)[nH]c2=S)c1`, which Potency is on record?
Answer: inactive

Question: For `CSCC[C@H](NC(=O)c1cccc(S(=O)(=O)N2CCN(C)CC2)c1)c1nc2ccccc2[nH]1`, which Potency is on record?
Answer: inconclusive: 89.1 µM [inhibitor, single point]

Question: With `COc1ccc(-c2c(NC(=O)c3ccco3)oc3ccccc3c2=O)cc1` as the compound, how does the Potency read?
Answer: inconclusive: 2.51 µM [inhibitor, partial curve, poor fit]

Question: Which Potency does the source give for `CCOc1cc(Br)cc(/C=N/NC(=O)c2cccnc2)c1O` here?
Answer: inconclusive: 89.1 µM [inhibitor, single point]

Question: How did the Potency turn out when `CCOC(=O)c1ccccc1NC(=O)C1CSC2(C)CCC(=O)N12` (stereo not given) was run?
Answer: inconclusive: 0.562 µM [inhibitor, full curve, poor fit]

Question: With `Oc1c(Cl)cc(Oc2cc(Cl)c(O)c(CN3CCOCC3)c2)cc1CN1CCOCC1` as the compound, how does the Potency read?
Answer: inconclusive: 89.1 µM [inhibitor, partial curve, poor fit]

Question: With `Cc1ccc2c(c1)N(CC(=O)N1CCCCC1)C(=O)CO2` as the compound, how does the Potency read?
Answer: inconclusive: 89.1 µM [inhibitor, single point]

Question: `CCC(C(=O)O)N1C(=O)/C(=C/c2cccn2C)SC1=S` (stereo not given) was tested. Which Potency did it give?
Answer: inconclusive: 79.4 µM [inhibitor, partial curve, poor fit]

Question: Which Potency does the source give for `Nc1ccc(O)cc1` here?
Answer: inconclusive: 8.91 µM [inhibitor, partial curve]

Question: `O=C1OC(c2ccccc2)=NC12CC2c1ccc(Cl)cc1` (stereo not given) was tested. Which Potency did it give?
Answer: inactive

Question: How did the Potency turn out when `NCCSSCCN` was run?
Answer: inconclusive: 20 µM [inhibitor, partial curve]

Question: For `NS(=O)(=O)c1ccc(N=Nc2c(=O)[nH]n3c(=O)c4c([nH]c23)CCCC4)cc1`, which Potency is on record?
Answer: inconclusive: 56.2 µM [inhibitor, partial curve, poor fit]

Question: With `COC1=CC(=O)c2c(ccc3ncnc(N)c23)C1=O` as the compound, how does the Potency read?
Answer: active: 79.4 µM

Question: With `COC(=O)C1C(O)C(C)C(O)C(C)(O)/C=C\C=C(/C)C(=O)Nc2c(C)c(OC(C)=O)c3c(c2O)C(=O)C(C)=C2OCOC(=C23)/C(C)=C/C(C)(O)C(O)C(C)C1O` (stereo not given) as the compound, how does the Potency read?
Answer: inconclusive: 79.4 µM [inhibitor, partial curve, poor fit]

Question: For `C=CCN(CC=C)Cc1c(C)[nH]c2c(C)c(C)ccc2c1=O`, which Potency is on record?
Answer: inactive

Question: For `N#C/C(=C\c1ccc(-c2ccccc2C(=O)O)o1)c1nc2ccccc2[nH]1`, which Potency is on record?
Answer: inconclusive: 44.7 µM [inhibitor, partial curve, poor fit]

Question: How did the Potency turn out when `CC(C)NC(=O)NC(=O)COC(=O)Cc1c(F)cccc1Cl` was run?
Answer: inconclusive: 89.1 µM [inhibitor, single point]

Question: For `O=C(C=Cc1ccc2c(c1)OCO2)c1ccccc1`, which Potency is on record?
Answer: inactive

Question: How did the Potency turn out when `Cc1ccc(-c2ccc(/C=N/N=C3/NC(=O)C(CC(=O)O)S3)o2)c([N+](=O)[O-])c1` (stereo not given) was run?
Answer: inconclusive: 89.1 µM [inhibitor, partial curve, poor fit]

Question: How did the Potency turn out when `CCCCCCCC/C=C\CCCCCCCC(=O)NCCO` was run?
Answer: inconclusive: 28.2 µM [inhibitor, partial curve]

Question: With `O=C(/C=C/c1ccccc1)n1cnnc1SC/C=C/c1ccccc1` as the compound, how does the Potency read?
Answer: inactive

Question: How did the Potency turn out when `O=C(CNCc1ccco1)Nc1cccc(S(=O)(=O)N2CCCCC2)c1` was run?
Answer: inconclusive: 89.1 µM [inhibitor, single point]

Question: For `OCCN1CCN(CCCN2c3ccccc3C=Cc3ccccc32)CC1`, which Potency is on record?
Answer: inconclusive: 8.44 µM [inhibitor, single point]

Question: How did the Potency turn out when `Cc1cc(C=O)c(O)cc1O` was run?
Answer: inconclusive: 0.224 µM [inhibitor, partial curve, poor fit]

Question: `CSc1ncc(Cl)c(C(=O)Nc2cccnc2)n1` was tested. Which Potency did it give?
Answer: inactive

Question: `Cc1cccc(C=Nc2ccc3c(c2)oc2ccccc23)c1O` was tested. Which Potency did it give?
Answer: inactive

Question: How did the Potency turn out when `COc1ccccc1NC(=O)c1sc2nc(-c3cc4cc(Cl)ccc4oc3=O)[nH]c(=O)c2c1C` was run?
Answer: inconclusive: 89.1 µM [inhibitor, partial curve, poor fit]

Question: Which Potency does the source give for `O=C(O)CSc1cc(NS(=O)(=O)c2cccc([N+](=O)[O-])c2)c2ccccc2c1O` here?
Answer: inconclusive: 39.8 µM [inhibitor, partial curve, poor fit]

Question: Which Potency does the source give for `CCOC(=O)C1CCCN(C(c2ccccn2)c2c(C)[nH]c3ccccc23)C1` (stereo not given) here?
Answer: inactive

Question: Which Potency does the source give for `COC(=O)c1cc(S(=O)(=O)NC2CCCCC2)cn1C` here?
Answer: inconclusive: 89.1 µM [inhibitor, single point]

Question: `COc1ccc(NC(=O)c2noc3c2CSc2ccccc2-3)cc1Cl` was tested. Which Potency did it give?
Answer: inactive

Question: Which Potency does the source give for `CCCCn1c(/C=C/c2ccco2)nc2ccccc21` here?
Answer: inactive

Question: For `CC(=O)Oc1c(Br)cc(N(C(C)=O)S(=O)(=O)c2ccccc2)c2ccccc12`, which Potency is on record?
Answer: inconclusive: 44.7 µM [inhibitor, partial curve]

Question: How did the Potency turn out when `COc1ccc(-c2nc3c(=O)n(C)c(=O)nc-3n(C)n2)cc1` was run?
Answer: inconclusive: 28.2 µM [inhibitor, partial curve, poor fit]

Question: Which Potency does the source give for `O=[N+]([O-])c1ccc(C2Nc3cccc4cccc(c34)N2)cc1` here?
Answer: inactive

Question: `CSc1sc(C(=O)O)c(C)c1C(C)=O` was tested. Which Potency did it give?
Answer: inconclusive: 0.0891 µM [inhibitor, partial curve, poor fit]

Question: Which Potency does the source give for `O=C1C(C2=C(O)c3ccccc3C2=O)=Nc2ccccc21` here?
Answer: active: 35.5 µM

Question: With `Cc1ccccc1C(=O)Nc1nnc(S(=O)(=O)N2CCCCCC2)s1` as the compound, how does the Potency read?
Answer: inconclusive: 35.5 µM [inhibitor, single point]

Question: With `COc1ccc(-c2onc(C)c2C)cc1S(=O)(=O)NC1CCC(C)CC1` (stereo not given) as the compound, how does the Potency read?
Answer: inactive

Question: Which Potency does the source give for `COc1ccccc1NC(=S)N1CCN(C(c2ccccc2)c2ccccc2)CC1` here?
Answer: inconclusive: 22.4 µM [inhibitor, partial curve, poor fit]
